Data as given in PubChem BioAssay AID588855 (National Center for Advancing Translational Sciences (NCATS), 2011).
Several values for one entry are separate records, joined by “and”; a condition that tells them apart may be missing. Equal entries are not always repeated. The whole screen tested about 410,000 compounds, of which about 5,000 (1.2%) were called active. This list was built around the results that the source calls inconclusive (neither active nor inactive); the mix of calls is not that of the screen. Calls follow the shape of the dose curve; as a rule, active = well fitted inhibition curve with a large enough effect; inconclusive = small, poorly fitted or top-dose-only effect; inactive = no such curve, though single readings can be large or run the other way. Potencies of inconclusive entries are doubtful fits and often do not repeat.

Test: qHTS for Inhibitors of TGF-b; also: nearly all actives have a fitted effect of over 65% in size
Details: HepG2 CAGA-GFP TGF-b/SMAD3 reporter, GFP fluorescence, 18 h, TGF-beta stimulated, 500 pg/mL final; series mostly up to 46.1 µM
How it was run: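 HEPG2 CAGA-GFP, 1000 cells/well; 2 h settle, 37 C; cpd via pin tool; TGF-b 500 pg/mL final; 18 h, 37 C; GFP imaging ex488/em500-530; %Activity normalised to -TGF-b and +DMSO controls; CRC fit, curve class.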
Potency is read from the fitted curve at half-maximal effect; tags tell the direction and shape of the fitted curve.

| SMILES | Potency |
| --- | --- |
| CCOC(=O)N1CCN(C2CC(=O)N(c3ccc(F)cc3)C2=O)CC1 (configuration not stated) | inactive |
| O=C(CC1C(=O)NCCN1Cc1cccc(F)c1)NC1CCCCC1 (configuration not stated) | inconclusive: 17.8 µM [inhibitor, single point] |
| CCN(CC)C(=S)SSC(=S)N(CC)CC | inconclusive: 0.1 µM [inhibitor, full curve, poor fit] |
| Clc1ccc(CCNc2ncnc3c2c(-c2ccccc2)cn3-c2ccccc2)cc1 | inconclusive: 7.08 µM [inhibitor, partial curve, poor fit] |
| CCOC(=O)CCCCC(=O)c1[nH]c(=O)[nH]c1C[n+]1ccc(C)cc1 | inconclusive: 3.98 µM [inhibitor, full curve, poor fit] |
| COc1ccccc1/C=C/C=N/n1c(-c2ccncc2)n[nH]c1=S | inactive |
| N#C/C(=C\c1ccc(N2CCOCC2)o1)c1ccccc1 | inconclusive: 35.5 µM [inhibitor, single point] |
| O=C(c1ccc(NC(=S)Nc2ccc(Cl)c(Cl)c2)cc1)N1CCCC1 | inconclusive: 35.5 µM [inhibitor, single point] |
| Cc1ccc2ccc(C(Nc3ccccn3)c3ccccc3)c(O)c2n1 (configuration not stated) | inconclusive: 11.2 µM [inhibitor, single point] and inconclusive: 25.1 µM [inhibitor, single point] |
| COC(=O)C1CCN(C(=O)C2CCN(C(=O)[C@@H](NS(=O)(=O)c3ccc(C)cc3)C(C)C)CC2)CC1 | inactive |
| CCCOc1ccccc1C(=O)N1CCC(c2nc3ccccc3s2)CC1 | inconclusive: 31.6 µM [inhibitor, single point] |
| Cc1nn(C)c(C)c1NC(=O)CCCSc1nc(-c2ccco2)cc(C(F)(F)F)n1 | inconclusive: 35.5 µM [inhibitor, single point] |
| O=C(OC(C(=O)Nc1ccc(Cl)c(C(F)(F)F)c1)c1ccccc1)C1=COCCO1 (configuration not stated) | inconclusive: 35.5 µM [inhibitor, single point] |
| O=C(Nc1cccc(Br)c1)Oc1cccc2cccnc12 | inconclusive: 2.51 µM [inhibitor, full curve, poor fit] |
| COC(=O)CN1C(=O)CSc2ccc(S(=O)(=O)Nc3ccc(Cl)cc3C)cc21 | inconclusive: 35.5 µM [inhibitor, single point] |
| COC(=O)c1ccccc1-c1ccc(/C=N/NC(=O)c2cc3ccccc3o2)o1 | inconclusive: 7.08 µM [inhibitor, full curve, poor fit] |
| Cc1ccc(CNC(=O)N[C@@H](Cc2ccccc2)C(=O)O)cc1 | inconclusive: 0.891 µM [inhibitor, partial curve] |
| C=CCc1c(C)nc2nc(SCC(=O)Nc3ccccc3CC)nn2c1C | inactive |
| CCOc1ccc(CCNC(=O)CN2CCN(Cc3ccc(F)cc3Cl)C2=O)cc1OCC | inconclusive: 11.2 µM [inhibitor, partial curve, poor fit] |
| COc1ccc(NCC(O)Cn2c(C)c(C)c3ccccc32)cc1 (configuration not stated) | inconclusive: 35.5 µM [inhibitor, single point] |
| CC(C)n1c(N2CCN(CC(=O)Nc3ccc4c(c3)OCCO4)CC2)nc2ccccc21 | inconclusive: 5.62 µM [inhibitor, single point] |

| SMILES | Potency |
| --- | --- |
| COC(=O)c1sccc1NC(=O)CN1CCN(c2ccc(F)cc2)CC1 | active: 11.2 µM |
| O=C(CCN1CCN(c2ccc([N+](=O)[O-])cc2)CC1)c1ccc(Cl)cc1 | inconclusive: 15.8 µM [inhibitor, single point] |
| COc1ccc(C(NC(=O)CC(C)C)c2c(O)ccc3ccccc23)cc1 (configuration not stated) | inconclusive: 35.5 µM [inhibitor, single point] |
| O=C(c1ccc(-n2cncn2)c([N+](=O)[O-])c1)N1CCN(S(=O)(=O)c2c(F)cccc2F)CC1 | inconclusive: 0.112 µM [inhibitor, full curve, poor fit] |
| CCc1ccccc1NNC(=O)CCc1ccccc1 | inconclusive: 1 µM [inhibitor, partial curve, poor fit] |
| Cc1cc(C(=O)N2CC=C(c3ccccc3)CC2)c2ccccc2n1 | inconclusive: 15.8 µM [inhibitor, single point] |
| O=C(/C=C/c1ccco1)Nc1ccc2nn(-c3ccccc3)nc2c1 | inconclusive: 3.55 µM [inhibitor, full curve, poor fit] |
| COC(=O)[C@H]1C[C@@H]1[C@H](NC(=O)OCc1ccccc1)c1ccccc1 | inconclusive: 5.62 µM [inhibitor, single point] |
| CO/N=C/NC(=O)NOCc1ncc(C(F)(F)F)cc1Cl | inactive |
| Cn1cccc1Cc1nnc(SCC(=O)Nc2nccs2)n1C | inactive |
| CC[C@]12c3[nH]c4cc(-c5ccco5)ccc4c3CCN1C(=O)[C@@H](CC(=O)NCCCOC)C[C@@H]2C(=O)N1CCN(C(=O)c2ccco2)CC1 | inconclusive: 35.5 µM [inhibitor, single point] |
| CCOc1ccc(S(=O)(=O)Nc2cc(OC)c(OC)cc2C(=O)O)cc1 | inactive |
| CC(=O)c1cccc(N(C(=O)CNC(=O)c2ccco2)C(C(=O)NC2CCCC2)c2ccco2)c1 (configuration not stated) | inconclusive: 35.5 µM [inhibitor, single point] |
| CN(C(=O)CSc1cn(CC(=O)N2CCCCC2)c2ccccc12)c1ccccc1 | inconclusive: 35.5 µM [inhibitor, single point] |
| COc1ccc(-c2noc(C3CC(=O)N(c4cc(C)cc(C)c4)C3)n2)cc1 (configuration not stated) | inactive |
| O=C(Cc1ccc(F)cc1)N1CCC(c2nc3c(nnn3Cc3ccc(Cl)cc3)c(=O)[nH]2)CC1 | inconclusive: 14.1 µM [inhibitor, single point] |
| COc1ccc(/C=C/c2nc(C#N)c(N3CCN(c4ccccc4)CC3)o2)cc1OC | inconclusive: 20 µM [inhibitor, single point] |
| O=C(NCCF)C1Nc2ccc(OC(F)(F)F)cc2C2C=CCC12 (configuration not stated) | inactive |
| FC(F)(F)c1ccccc1Cc1c(-c2ccc(Cl)cc2)nc2ccc(Br)cn12 | inconclusive: 17.8 µM [inhibitor, single point] |
| COC(=O)[C@@H](Cc1ccccc1)NC(=O)NCCc1c[nH]c2ccccc12 | inconclusive: 35.5 µM [inhibitor, single point] |
| CN(C)c1ccc(-c2nn3c(-c4cc(-c5ccccc5)n[nH]4)nnc3s2)cc1 | inconclusive: 3.55 µM [inhibitor, single point] |

| SMILES | Potency |
| --- | --- |
| Cc1ccc(CCNC(=O)C2CCCN(Cc3nc(-c4cccc(Cl)c4)oc3C)C2)cc1 (configuration not stated) | inactive |
| COC(=O)C1=C(C)NC(C)=C(C(=O)OC)C1c1ccc(OC(=O)c2oc3ccccc3c2C)c(OC)c1 | inactive |
| COC(=O)[C@@]12CCCCN1[C@H](c1ccc(SC3CCCCC3)cc1)[C@H]1C(=O)N(C)C(=O)[C@H]12 | inconclusive: 0.447 µM [inhibitor, full curve, poor fit] |
| CC1=CC(C)(C)n2c(O)c(N=N)c3cc(C)cc1c32 | inconclusive: 12.6 µM [inhibitor, partial curve, poor fit] |
| Cc1cccn2cc(-c3ccc(NC(=O)Cc4ccccc4)cc3)nc12 | inconclusive: 25.1 µM [inhibitor, single point] |
| O=C(c1cc(COc2cccc(C(F)(F)F)c2)on1)N1CCC(c2ccncc2)CC1 | inconclusive: 17.8 µM [inhibitor, partial curve, poor fit] |
| COc1cccc(-c2nn(C)c3sc(C(=O)NCc4ccc5c(c4)OCO5)cc23)c1 | inactive |
| COC(=O)c1cc(NC(=O)c2cc(-c3ccc(Cl)cc3)oc2C(F)(F)F)ccc1N1CCOCC1 | inconclusive: 35.5 µM [inhibitor, single point] |
| O=c1c2ccccc2n(Cc2ccc(F)cc2)c(=O)n1C1CCCC1 | inconclusive: 28.2 µM [inhibitor, single point] |
| CCCCCCc1ccc(N2C[C@H](CCCCC)[C@@H](CC(=O)NCc3ccc(OC)cc3)C2=O)cc1 | inconclusive: 35.5 µM [inhibitor, single point] |
| O=C(NCCC1CCCCN1S(=O)(=O)c1ccccc1)C(=O)NC1CCCC1 (configuration not stated) | inconclusive: 12.6 µM [inhibitor, single point] |
| Cc1cccnc1NC(=O)c1cc2c(=O)oc3ccccc3c2s1 | inconclusive: 4.47 µM [inhibitor, full curve, poor fit] |
| Cn1sc2ccccc2c1=O | inconclusive: 17.8 µM [inhibitor, single point] |
| Cc1cc2nc3ccc(=[N+](C)C)cc-3sc2cc1N | inconclusive: 8.91 µM [inhibitor, partial curve, poor fit] |
| CC(=O)NC(c1ccc(N(C)C)cc1)c1cc(Cl)c2cccnc2c1O (configuration not stated) | inconclusive: 2.82 µM [inhibitor, full curve, poor fit] |
| CCc1ccccc1NC(=O)c1cc(S(=O)(=O)NCCc2ccc(OC)c(OC)c2)ccc1F | inconclusive: 11.2 µM [inhibitor, single point] |
| CCN(CC)CCNC(=O)c1ccc(NC(=O)c2c(C)nn(-c3ccc(F)cc3)c2Cl)cc1 | inactive |
| CC(=O)Nc1c(C)nn(-c2ccccc2)c1N1CCC(C(=O)Nc2cc(Cl)ccc2C)CC1 | inactive |
| Cc1nnc(NC(=O)c2nc(S(=O)(=O)Cc3ccccc3)ncc2Cl)s1 | inconclusive: 35.5 µM [inhibitor, partial curve, poor fit] |
| Cc1nc2c(-c3ccccc3)c(C)nn2c(C)c1CCC(=O)NCc1cccc(Cl)c1 | inconclusive: 22.4 µM [inhibitor, partial curve, poor fit] |
